From publication PMC7083877
No constants are given. Whether binding was seen depends on the method and setting. Binding seen in cells or lysates may run through a third protein. Some results given as binding are weak or reduced against the parent protein; the word gives no strength. Where a sequence is shown, tags or fusion partners need not be part of it.

Biological target: T1, Flag-SBDS (Flag-tagged pEnter-SBDS) (human) (UniProt Q9Y3A5)
T1 sequence: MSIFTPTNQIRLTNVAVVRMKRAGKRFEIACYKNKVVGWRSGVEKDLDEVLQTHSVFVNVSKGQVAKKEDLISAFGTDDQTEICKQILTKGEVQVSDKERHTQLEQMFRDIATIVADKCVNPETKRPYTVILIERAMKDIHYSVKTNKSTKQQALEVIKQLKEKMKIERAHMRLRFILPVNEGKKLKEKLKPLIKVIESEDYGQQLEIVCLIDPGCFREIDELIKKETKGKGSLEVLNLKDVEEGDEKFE
Experiment: co-IP; H1299 cells transfected with the indicated plasmids; IP with anti-p53 (Fig. 6a) or anti-Flag (Fig. 6b), IB

binding: binds
Substance: p53 (exogenous, from the p53 plasmid) (from UniProt P04637 1-393)
